In US20230295068A1, “NOVEL CYCLOALKENONE COMPOUND OR SALT THEREOF” (TAIHO PHARMACEUTICAL CO., LTD., priority 2020, published 2023):
At least one read-out could not be matched to a standard name with certainty.

Test system: ND3 neuronal cell line
Test: Measurement of nerve growth stimulation effect (neurite bearing assay, neurite length assay, number of cells)
Type: cell-based
Experimental: To evaluate the nerve growth stimulation effect, neurite bearing assay (proportion of neurite-bearing cells) and neurite length assay (neurite length) were analyzed with reference to the method of Topalli et al. (Brain Research 1030 (2004), pp. 116-124).
An ND3 neuronal cell line (European Collection of Authenticated Cell Cultures) was seeded in a DMEM medium containing 10% fetal bovine serum (0.6×10^4 cells/1 mL) in a 24-well plate. 24 hours later, the medium of seeded cells was removed, and a solution in which the compound of the present disclosure that was sequentially diluted in dimethyl sulfoxide (DMSO) was adjusted in DIEM containing 0.1% bovine serum albumin so that the DMSO final concentration was 0.1%, was added to cells (evaluation performed in duplicate). After six hours from the addition, the proportion of neurite-bearing cells (the number of cells having a neurite longer than the diameter of the cell body/number of total cells), and the neurite length per cell were analyzed. The number of total cells, proportion of neurite-bearing cells, and neurite length per cell were analyzed using a MetaMorph Neurite Outgrowth Application Module (Molecular Devices Japan K.K.). The number of cells was defined as the relative cell number, taking the number of cells per well containing DMSO as 1. The relative activity of each compound when the maximum activity of 3-(15-methoxypentadecyl)-2,4,4-trimethylcyclohexa-2-en-1-one (compound 24) in each test was defined as 1 is shown (Table 9). For the compounds for which multiple tests were conducted, the average value was shown. Data with a number of cells of 0.5 or more was also used. Accordingly, if the number of cells was less than 0.5, the neurite length per cell and the proportion of neurite-bearing cells were defined as “-”.

[1] = 1 μM, 6 hours, relative activity, maximum activity of compound 24 = 1
[2] = 3 μM, 6 hours, relative activity, maximum activity of compound 24 = 1
[3] = 5 μM, 6 hours, relative activity, maximum activity of compound 24 = 1
[4] = 10 μM, 6 hours, relative activity, maximum activity of compound 24 = 1
[5] = 30 μM, 6 hours, relative activity, maximum activity of compound 24 = 1
[6] = 100 μM, 6 hours, relative activity, maximum activity of compound 24 = 1
[7] = 1 μM compound, ND3 cells, 6 h, relative activity vs maximum activity of compound 24
[8] = 3 μM compound, ND3 cells, 6 h, relative activity vs maximum activity of compound 24
[9] = 5 μM compound, ND3 cells, 6 h, relative activity vs maximum activity of compound 24
[10] = 10 μM compound, ND3 cells, 6 h, relative activity vs maximum activity of compound 24
[11] = 30 μM compound, ND3 cells, 6 h, relative activity vs maximum activity of compound 24
[12] = 100 μM compound, ND3 cells, 6 h, relative activity vs maximum activity of compound 24

Row | SMILES | Neurite length per cell [1] | Proportion of neurite-bearing cells [1] | Neurite length per cell [2] | Proportion of neurite-bearing cells [2] | Neurite length per cell [3] | Proportion of neurite-bearing cells [3] | Neurite length per cell [4] | Proportion of neurite-bearing cells [4] | Neurite length per cell [7] | Proportion of neurite-bearing cells [7] | Neurite length per cell [8] | Proportion of neurite-bearing cells [8] | Neurite length per cell [9] | Proportion of neurite-bearing cells [9] | Neurite length per cell [10] | Proportion of neurite-bearing cells [10] | Neurite length per cell [11] | Proportion of neurite-bearing cells [11] | Neurite length per cell [12] | Proportion of neurite-bearing cells [12] | further results
1 | CC1=C(CCCCCCCCCCCCCCCOC(=O)c2ccccc2)C(C)(C)CCC1=O [Compound 53, 15-(2,6,6-trimethyl-3-oxocyclohex-1-en-1-yl)pentadecyl benzoate] | 0.22 | 0.12 | 0.22 | 0.13 | 0.20 | 0.12 | 0.20 | 0.11 |  |  |  |  |  |  |  |  |  |  |  |  | Neurite length per cell [5]: 0.22; Proportion of neurite-bearing cells [5]: 0.12; Neurite length per cell [6]: 0.22; Proportion of neurite-bearing cells [6]: 0.13
2 | CC1=C(CCCCCCCCCCCCCCC(=O)N(C)C)C(C)(C)CCC1=O [Compound 54, N,N-dimethyl-15-(2,6,6-trimethyl-3-oxocyclohex-1-en-1-yl)pentadecanamide] | 0.20 | 0.15 | 0.30 | 0.27 | 0.38 | 0.35 | 0.61 | 0.61 |  |  |  |  |  |  |  |  |  |  |  |  | 
3 | CNC(=O)OCCCCCCCCCCCCCCCC1=C(C)C(=O)CCC1(C)C [Compound 55, 15-(2,6,6-trimethyl-3-oxocyclohex-1-en-1-yl)pentadecylmethylcarbamate] | 0.21 | 0.13 | 0.33 | 0.26 | 0.44 | 0.39 | 0.53 | 0.48 |  |  |  |  |  |  |  |  |  |  |  |  | Neurite length per cell [5]: 0.62; Proportion of neurite-bearing cells [5]: 0.67
4 | CCNC(=O)OCCCCCCCCCCCCCCCC1=C(C)C(=O)CCC1(C)C [Compound 56, 15-(2,6,6-trimethyl-3-oxocyclohex-1-en-1-yl)pentadecylethylcarbamate] | 0.25 | 0.19 | 0.40 | 0.35 | 0.55 | 0.51 | 0.62 | 0.62 |  |  |  |  |  |  |  |  |  |  |  |  | Neurite length per cell [5]: 0.62; Proportion of neurite-bearing cells [5]: 0.56; Neurite length per cell [6]: 0.53; Proportion of neurite-bearing cells [6]: 0.44
5 | CCC1=C(CCCCCCCCCCCCCCCOC)C(C)(C)CCC1=O [Compound 60, 2-ethyl-3-(15-methoxypentadecyl)-4,4-dimethylcyclohex-2-en-1-one] | 0.30 | 0.27 | 0.30 | 0.30 | 0.34 | 0.40 | 0.40 | 0.46 |  |  |  |  |  |  |  |  |  |  |  |  | Neurite length per cell [5]: 0.41; Proportion of neurite-bearing cells [5]: 0.45; Neurite length per cell [6]: 0.67; Proportion of neurite-bearing cells [6]: 0.70
6 | CCCC1=C(CCCCCCCCCCCCCCCOC)C(C)(C)CCC1=O [Compound 61, 3-(15-methoxypentadecyl)-4,4-dimethyl-2-propylcyclohex-2-en-1-one] |  |  |  |  |  |  |  |  | 0.26 | 0.26 | 0.28 | 0.28 | 0.31 | 0.34 | 0.30 | 0.32 | 0.31 | 0.32 | 0.37 | 0.36 | 
7 | COCCCCCCCCCCCCCCCC1=C(C(C)C)C(=O)CCC1(C)C [Compound 62, 2-isopropyl-3-(15-methoxypentadecyl)-4,4-dimethylcyclohex-2-en-1-one] |  |  |  |  |  |  |  |  | 0.30 | 0.30 | 0.29 | 0.29 | 0.32 | 0.36 | 0.28 | 0.30 | 0.29 | 0.30 | 0.32 | 0.33 | 
8 | COCCCCCCCCCCCCCCCC1C(C)C(=O)CCC1(C)C (stereo not drawn) [Compound 63, 3-(15-methoxypentadecyl)-2,4,4-trimethylcyclohexan-1-one] |  |  |  |  |  |  |  |  | 0.33 | 0.33 | 0.38 | 0.40 | 0.41 | 0.48 | 0.44 | 0.54 | 0.42 | 0.44 | 0.47 | 0.45 | 
9 | COCCCCCCCCCCCCCCCC1=C(C)CCCC1(C)C [Compound 64, 2-(15-methoxypentadecyl)-1,3,3-trimethylcyclohex-1-ene] |  |  |  |  |  |  |  |  | 0.26 | 0.21 | 0.26 | 0.22 | 0.30 | 0.27 | 0.45 | 0.38 | 0.89 | 0.91 | 0.72 | 0.82 | 
10 | COCCCCCCCCCCCCCCCC1=C(C)C(O)CCC1(C)C (stereo not drawn) [Compound 65, 3-(15-methoxypentadecyl)-2,4,4-trimethylcyclohex-2-en-1-ol] |  |  |  |  |  |  |  |  | 0.33 | 0.30 | 0.38 | 0.40 | 0.44 | 0.52 | 0.51 | 0.64 | 0.47 | 0.54 | 0.47 | 0.50 | 
11 | COCCCCCCCCCCCCCCCC1=C(C)C(N)CCC1(C)C (stereo not drawn) [Compound 66, 3-(15-methoxypentadecyl)-2,4,4-trimethylcyclohex-2-en-1-amine] |  |  |  |  |  |  |  |  | 0.31 | 0.31 | 0.31 | 0.33 | 0.32 | 0.38 | 0.28 | 0.33 |  |  |  |  | 
12 | COCCCCCCCCCCCCCCCC1=C(C)C(=NO)CCC1(C)C [Compound 67, 3-(15-methoxypentadecyl)-2,4,4-trimethylcyclohex-2-en-1-one oxime] |  |  |  |  |  |  |  |  | 0.31 | 0.33 | 0.32 | 0.37 | 0.32 | 0.39 | 0.32 | 0.38 | 0.34 | 0.38 | 0.34 | 0.32 | 
13 | COCCCCCCCCCCCCCCCC1=C(C)/C(=N/OC)CCC1(C)C [Compound 68, 3-(15-methoxypentadecyl)-2,4,4-trimethylcyclohex-2-en-1-one O-methyloxime] |  |  |  |  |  |  |  |  | 0.29 | 0.31 | 0.30 | 0.35 | 0.30 | 0.36 | 0.29 | 0.35 | 0.28 | 0.30 | 0.29 | 0.29 | 
14 | COCCCCCCCCCCCCCCCC1=C(C)C(=O)CC1(C)C [Compound 69, 3-(15-methoxypentadecyl)-2,4,4-trimethylcyclopent-2-en-1-one] |  |  |  |  |  |  |  |  | 0.40 | 0.39 | 0.56 | 0.58 | 0.60 | 0.69 | 0.90 | 0.97 | 1.77 | 2.18 |  |  | 
